Source: PubChem BioAssay AID651820 (National Center for Advancing Translational Sciences (NCATS), 2012)
Among all 340,000 compounds or so, about 12,000 (3.5%) were called active. This list was built around the results that the source calls inconclusive (neither active nor inactive); the mix of calls is not that of the screen. The call rests on the fitted dose curve; in most records, active means well fitted inhibition curve with a large enough effect; inconclusive means small, poorly fitted or top-dose-only effect, or another doubt; inactive means no such curve, though single readings can be large or run the other way. Potencies of inconclusive entries are left out as doubtful fits.
On the % scale 0 is the no-effect control and ±100 the full control effect; potency means the concentration at half of the fitted maximal effect; tags describe the fitted curve by direction and shape.

Assay: qHTS Assay for Inhibitors of Hepatitis C Virus (HCV)
Conditions: Huh7.5.1 HCVcc-Cre (HCVcc is cell-culture hepatitis C virus) infection, luciferase reporter, 44 h; activity change, negative = inhibition: at 41.8 µM (top of the series) unless noted
In short: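 Whole-lifecycle infectious HCVcc-Cre system; cells 1,000/well, compound then virus (~0.5 moi) added 4 h after plating, 44 h culture. Luciferase read 15 sec following 15 min substrate incubation, room temp.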
For `Fc1cccc(NCCc2c[nH]c3ccccc23)n1`, the Potency was inconclusive [inhibitor, partial curve]. With `c1ccc(-c2noc(CSc3nnc(Cc4cccs4)n3-c3ccccc3)n2)cc1` the Potency was inconclusive [inhibitor, single point]. With `CN(C)CCNC(=O)C(=O)Nc1ccc2c(c1)N(S(=O)(=O)c1cccs1)CCC2` the Potency was inconclusive [inhibitor, single point]. In the case of `COc1ccc(C2=NN(C(=O)CSc3nnnn3C)C(c3ccco3)C2)cc1` (stereo unspecified), the Potency is reported as “inactive”. For `COC(=O)c1cc(OC)c(OC)cc1NC(=O)CCC1CCCC1`, the Potency was inconclusive [inhibitor, partial curve]. In the case of `CCn1c2ccccc2c2cc(C3C(C#N)=C(C)NC(C)=C3C#N)ccc21`, the Potency is reported as active: 11.2 µM. With `O=C1/C(=C/c2cccnc2)SC(=S)N1Nc1ccccc1` the Potency was “inactive”. With `O=C(C(NS(=O)(=O)c1cccs1)c1ccccc1)N1CCN(c2ccccc2F)CC1` (stereo unspecified) the Potency was inconclusive [inhibitor, single point]. In the case of `C/C(=N/Nc1nc(-c2ccccc2)c(CC(=O)O)s1)c1ccccc1`, the Potency is reported as active: 12.6 µM. With `COc1ccc(C(=O)NC2CCCc3c2cnn3-c2ccccc2F)cc1OC` (stereo unspecified) the Potency was active: 4.47 µM. For `O=S(=O)(NCC1CCCO1)c1ccccc1` (stereo unspecified), the Potency was “inactive”. In the case of `COc1ccc(Cl)cc1NC(=O)CN(C)C(=O)CSc1ccc2c(c1)OCCO2`, the Potency is reported as inconclusive [inhibitor, single point]. With `Cc1ccc(C)c(Cn2nnc(C(=O)Nc3ccc4c(c3)OCCO4)c2N)c1` the Potency was inconclusive [inhibitor, partial curve]. With `O=C(COc1ccc(Br)cc1Cl)NC1CCN(Cc2ccccc2)CC1` the Potency was active: 11.2 µM. For `O=C(NCCC1CCCCN1S(=O)(=O)c1ccccc1)C(=O)NCc1ccc(F)cc1` (stereo unspecified), the activity change, negative = inhibition was inconclusive: -52.5% [inhibitor]. For `COc1ccc(N2CCN(C(=O)C3CCCN(S(=O)(=O)c4ccc5c(c4)oc(=O)n5C)C3)CC2)cc1` (stereo unspecified), the Potency was “inactive”. In the case of `COC(=O)c1ccc[n+](CC(=O)c2ccc(Br)cc2)c1`, the Potency is reported as “inactive”. In the case of `COc1ccc(O)c(/C=N/NC(=S)Nc2cccc(S(=O)(=O)N(C)C)c2)c1`, the Potency is reported as inconclusive [inhibitor, partial curve]. In the case of `O=S(=O)(NCCc1ccc2c(c1)OCCO2)c1cccs1`, the Potency is reported as inconclusive [inhibitor, full curve, poor fit]. In the case of `COc1ccc(N2C(=O)CCC(C(C)=O)=C2C)cc1`, the Potency is reported as “inactive”. In the case of `CCOC(=O)CSc1nc2c(sc(=S)n2CCc2ccccc2)c(=O)n1Cc1ccco1`, the Potency is reported as active: 14.1 µM. For `Cc1ccc([N+](=O)[O-])cc1-c1[nH]c(-c2ccc(O)c(O)c2)nc1-c1ccccc1`, the Potency was inconclusive [inhibitor, single point]. In the case of `c1ccc(Oc2ccc(-c3ccnc4nc(N5CCOCC5)nn34)cc2)cc1`, the Potency is reported as inconclusive [inhibitor, single point]. For `COc1ccc(C(=O)NCC(c2cccs2)N2CCc3ccccc32)cc1OC` (stereo unspecified), the Potency was inconclusive [inhibitor, single point]. For `O=C1Nc2ccccc2/C1=C\c1cccn1-c1ccc(OC(F)(F)F)cc1`, the Potency was active: 0.562 µM. With `Cc1cc(NC(=O)c2cc(-c3cccc(OCC(C)C)c3)nc3ccccc23)no1` the Potency was active: 12.6 µM. With `COc1ccc(Cl)cc1NC(=O)CSc1nnc(COc2ccccc2)n1N` the Potency was inconclusive [inhibitor, single point]. In the case of `CCN(CC)S(=O)(=O)c1ccc(N/N=C(\C)c2ccc(OC)cc2O)nc1`, the Potency is reported as inconclusive [inhibitor, single point]. For `O=C(Nc1nc(-c2ccccn2)cs1)C1CC(=O)N(c2ccc3c(c2)OCCO3)C1` (stereo unspecified), the Potency was inconclusive [inhibitor, partial curve]. For `Cc1cc(Cl)ccc1OCC(=O)NCC(c1cccs1)N1CCOCC1` (stereo unspecified), the Potency was active: 10 µM. For `O=C(/C=C/c1cccs1)NC1CC1`, the Potency was “inactive”. In the case of `COc1ccc(CCNC(=O)c2ccc3c(=O)n4c(nc3c2)CCC4)cc1OC`, the Potency is reported as inconclusive [inhibitor, single point]. With `O=C(O)c1nc(NCCc2ccccc2)ncc1Cl` the Potency was “inactive”. With `CN(C)CCC1(C2=CCCC2)CC/C(=C/c2ccc(Cl)cc2)C1=O` (stereo unspecified) the Potency was inconclusive [inhibitor, single point]. In the case of `O=C(Nc1nc(-c2ccccn2)cs1)c1cc2ccccc2o1`, the Potency is reported as inconclusive [inhibitor, partial curve]. In the case of `S=C(c1ccc(-c2cccc(Cl)c2)o1)N1CCOCC1`, the Potency is reported as inconclusive [inhibitor, partial curve]. In the case of `Nc1c(N(CCC2=CCCCC2)C(=O)Cc2ccc(F)cc2)c(=O)[nH]c(=O)n1Cc1ccccc1`, the Potency is reported as inconclusive [inhibitor, single point]. For `O=C(Nc1cccnc1)c1ccc(N2CCCC2)c([N+](=O)[O-])c1`, the Potency was active: 11.2 µM. In the case of `O=C(O)c1ccccc1C(=O)Nc1ccc(-c2csc(-c3ccccc3)n2)cc1`, the Potency is reported as inconclusive [inhibitor, single point]. For `CCCCCC(C)NC(=S)NC(=O)c1cc(S(=O)(=O)N2CCOCC2)ccc1C` (stereo unspecified), the Potency was inconclusive [inhibitor, partial curve]. With `COc1ccc(S(=O)(=O)N2CCCCC2)cc1NC(=O)CN1C(=O)NC(C)(C2CC2)C1=O` (stereo unspecified) the Potency was inconclusive [inhibitor, full curve, poor fit]. With `CC1CCCN(C(=O)COC(=O)c2cc([N+](=O)[O-])ccc2N2CCOCC2)C1` (stereo unspecified) the Potency was active: 31.6 µM. In the case of `CCOc1cc(/C=N/Nc2nn3cnnc3c3ccccc23)ccc1O`, the Potency is reported as inconclusive [inhibitor, single point]. In the case of `Cc1nc2c(C)cccc2cc1C(=O)N/N=C/c1cccnc1`, the Potency is reported as inconclusive [inhibitor, single point]. With `CC(C)CC(NC(=O)OC(C)(C)C)c1cn([C@@H](CCCCNC(=O)OC(C)(C)C)C(=O)N2CCN(C(=O)OC(C)(C)C)CC2)nn1` (stereo partly specified) the Potency was “inactive”. With `O=C(C1CC1)N(Cc1ccco1)c1nc(-c2ccccc2)cs1` the Potency was inconclusive [inhibitor, partial curve]. In the case of `CCCCN(Cc1ccco1)C(=O)c1cc2c(=O)[nH]c3ccc(C)cc3c2s1`, the Potency is reported as inconclusive [inhibitor, partial curve]. With `C=CCc1c(C)nc(C)nc1N/N=C/c1ccccc1O` the Potency was inconclusive [inhibitor, single point]. With `CC(=O)c1ccc(NC(=S)NC(C)CCc2ccccc2)cc1` (stereo unspecified) the Potency was “inactive”. With `COc1cc(/C=N/Nc2nc3ccccc3s2)cc([N+](=O)[O-])c1O` the Potency was “inactive”. For `O=C(/C=C/c1cn(-c2ccccc2)nc1-c1cccnc1)N1CCCC1`, the Potency was “inactive”. For `COc1ccc(-c2coc3cc4oc(=O)c5ccccc5c4cc23)cc1F`, the Potency was inconclusive [inhibitor, partial curve]. For `COc1ccc(COC(=O)N/C=C/c2ccco2)cc1`, the Potency was “inactive”. In the case of `COP(=O)(OC)c1nc(-c2cccc3ccccc23)oc1NCCc1ccccc1`, the Potency is reported as inconclusive [inhibitor, single point]. With `COc1ccc(C(=O)NCC(=O)N/N=C(C)\C=C\c2ccccc2)cc1OC` the Potency was inconclusive [inhibitor, full curve]. For `CO/N=C/C1CCN(c2ncc(C(F)(F)F)cc2Cl)C1=O` (stereo unspecified), the Potency was “inactive”. In the case of `COc1cccc(S(=O)(=O)N2CCN(c3ccccc3F)CC2)c1`, the Potency is reported as inconclusive [inhibitor, partial curve]. With `OCCN1CCN(c2nnc(-c3ccccc3)c3ccccc23)CC1` the Potency was “inactive”. With `CCOC(=O)c1cc2c(=O)n3ccccc3nc2n(CCOC)c1=NC(=O)c1c(-c2c(F)cccc2Cl)noc1C` the Potency was inconclusive [inhibitor, full curve, poor fit]. With `C/C(=N\NC(=O)CNc1cccc(C)c1)c1ccc(Br)s1` the Potency was inconclusive [inhibitor, partial curve]. For `CC(C)(C)c1ccc(OCCn2nc(C(=O)O)c3ccccc3c2=O)cc1`, the Potency was inconclusive [inhibitor, single point]. For `COc1ccc(N(C(=O)c2snc(C(N)=O)c2N)C(C(=O)NC2CCCC2)c2cc(OC)ccc2OC)c(OC)c1` (stereo unspecified), the Potency was inconclusive [inhibitor, single point]. With `CC(=O)Oc1ccc2c(=O)oc(-c3ccccc3)nc2c1` the Potency was “inactive”. For `CCOC(=O)C1(Cc2ccccc2C(F)(F)F)CCN(C2CCC2)CC1`, the Potency was “inactive”. For `CCOc1cc(C(=O)O/N=C(\N)c2ccc([N+](=O)[O-])cc2)cc(OCC)c1OCC`, the Potency was inconclusive [inhibitor, full curve]. For `O=C(CN1CCCC1)N1CCCc2c1c(=O)oc1ccc(OCc3ccccc3)cc21`, the Potency was inconclusive [inhibitor, partial curve]. With `CC(C)(C)c1cc(C(=O)N/N=C/c2cc3c(cc2Br)OCO3)n[nH]1` the Potency was active: 11.2 µM. With `Cc1cccc(-n2nc3c(c2NC(=O)c2ccc(Br)o2)CSC3)c1` the Potency was inconclusive [inhibitor, full curve, poor fit]. In the case of `CCSc1nnc(-c2ccccc2N=Cc2c(C)[nH]n(-c3ccccc3)c2=O)c(=O)[nH]1`, the Potency is reported as inconclusive [inhibitor, single point]. With `CN(C)C(=O)c1ccc(N=Nc2c(O)c3ccccc3[nH]c2=O)cc1` the Potency was “inactive”. With `Cc1cccc(NC(=O)c2onc3c2CCCC3)c1C` the Potency was “inactive”.
